# Measurements reported in PubChem BioAssay AID445 (National Center for Advancing Translational Sciences (NCATS), 2006).
# The whole screen tested about 110,000 compounds, of which about 40 (0.04%) were called active. The inconclusive results got no clear call from the source; some entries with a clear call stand among them for comparison. Calls follow the shape of the dose curve; as a rule, active = well fitted curve in the direction sought with a large enough effect in the signal ratio (not every such curve was filed as active); inconclusive = small, poorly fitted or top-dose-only effect, or a change in a side signal; inactive = flat fitted curve, though single readings scatter; the % refers to the signal ratio. Potencies of inconclusive entries are doubtful fits and often do not repeat.
# Experiment: IkB Signaling;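 as to IkBa stabilization activation: 0% = basal untreated cells and 100% = reference inhibitor full response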
# Details: ABC-DLBCL IkBa-CBG/CBR dual luciferase ratio (green luciferase fused to IkBa over red control in OCI-Ly3 lymphoma cells), 4 h, scaled: untreated 0%
# How it was run: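 Luminescence ratio of IκBα-fused green versus native red beetle luciferase in OCI-Ly3 cells, 4 h post-doxycycline with compound; red signal alone, scaled from basal (0%) to zero light (-100%), flagged nonspecific or cytotoxic effects.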
# [1] = IkBa stabilization activation: at 57.1 µM (top of the series), proteasome inhibitor 100% unless noted
# Potency is read from the fitted curve at half-maximal effect.
compound,measurement,setting,value
COc1cc(OC)cc(-c2nc3cc(C)ccc3o2)c1,IkBa stabilization activation,[1],inactive
CC(N)=NCCCC[C@H](N)C(=O)O,IkBa stabilization activation,[1],inconclusive: 4% [signal activator]
same,IkBa stabilization activation,"at 57.1 µM (top of the series), proteasome inhibitor 100%",inactive: 0.0799%
Cc1ccnc(NS(=O)(=O)c2ccc(NC(=O)c3nc(SC(C)C)ncc3Cl)cc2)n1,IkBa stabilization activation,[1],inconclusive: -0.797% [signal inhibitor]
CCCOC(=O)Cc1c(O)c2ccccc2[nH]c1=O,IkBa stabilization activation,[1],inactive
CCn1c(SCC(=O)Nc2ccccc2-c2ccccc2)nnc1-c1ccoc1C,IkBa stabilization activation,[1],inactive
CC(C)[C@H]1C(=O)C(C(N)=O)=C(O)[C@]2(O)C(=O)C3=C(O)c4c(O)ccc(N(C)C)c4C[C@H]3C[C@@H]12,IkBa stabilization activation,[1],inactive
Cc1ccc(S(=O)(=O)N2CCC(n3c(C)nc4cccnc43)CC2)c(C)c1,IkBa stabilization activation,[1],inconclusive: 1.17% [signal inhibitor]
CCOc1ccc(CCNC(=O)c2cc3sc(CC)cc3n2C)cc1OCC,IkBa stabilization activation,[1],inconclusive: 1.41% [signal inhibitor]
Cc1[nH]c2ccccc2c1SCCNC(=O)c1ccccc1F,IkBa stabilization activation,[1],inconclusive: 0.899% [signal inhibitor]
Cc1nc2cc(CO)ccc2s1,IkBa stabilization activation,[1],inactive
Cc1ccc2oc(-c3cc(NC(=O)/C=C/c4ccco4)ccc3Cl)nc2c1,IkBa stabilization activation,[1],inconclusive: 13% [signal inhibitor]
COc1ccc(-c2nnc(SCC(=O)Nc3cccc(Cl)c3)o2)cc1,IkBa stabilization activation,[1],inactive
Brc1ccc2nc(SCCOc3ccccc3)[nH]c2c1,IkBa stabilization activation,[1],inactive
COc1ccc(NC(=O)CCc2c(C)nc3c(-c4ccc(F)cc4)c(C)nn3c2C)c(OC)c1,IkBa stabilization activation,[1],inconclusive: -0.102% [signal inhibitor]
Cc1ccccc1CN1CCCN(CC(=O)Nc2ccc3c(c2)OCCO3)S1(=O)=O,IkBa stabilization activation,[1],inconclusive: 1.09% [signal inhibitor]
CCOC(=O)c1noc2nc(C)n(Cc3ccc([N+](=O)[O-])cc3)c(=O)c12,IkBa stabilization activation,[1],inactive
CC(NC(=O)c1ccco1)C(c1cccs1)N1CCN(c2ccccc2F)CC1 (stereo unspecified),IkBa stabilization activation,[1],inconclusive: 4.81% [signal inhibitor]
CCOc1ccc(NC(=O)c2c(NC(=O)c3cccs3)sc3c2CCC(C(C)(C)C)C3)cc1 (stereo unspecified),IkBa stabilization activation,[1],inconclusive: 3.83% [signal inhibitor]
COc1ccccc1NC(=O)c1cc(S(=O)(=O)NCCC2=CCCCC2)ccc1F,IkBa stabilization activation,[1],inconclusive: 0.0808% [signal inhibitor]
O=C(NCc1cccc(Cl)c1)C1CCCN(c2ncnc3onc(-c4ccc(F)cc4)c23)C1 (stereo unspecified),IkBa stabilization activation,[1],inconclusive: 5.86% [signal inhibitor]
CCn1c(=O)cc(SCC(=O)N2CCN(c3ccccc3F)CC2)c2ccccc21,IkBa stabilization activation,[1],inconclusive: 8.34% [signal inhibitor]
O=C(CSc1nnc2[nH]c(=O)cc(-c3ccccc3)n12)Nc1cc(C(F)(F)F)ccc1Cl,IkBa stabilization activation,[1],inconclusive: 7.35% [signal inhibitor]
COc1ccc(S(=O)(=O)N2CCN(CC(=O)Nc3cccc(F)c3)CC2)cc1,IkBa stabilization activation,[1],inactive
CN1CCN(c2nc(-c3cccnc3)nc3ccccc23)CC1,IkBa stabilization activation,[1],inactive
Cc1cc(-c2nc3ccccc3o2)c2ccccc2n1,IkBa stabilization activation,[1],inactive
Cc1cc(C)cc(N2CCn3c2nc2c3c(=O)n(CCCc3ccccc3)c(=O)n2C)c1,Potency,[1],"inconclusive: 10 µM [signal inhibitor, partial curve]"
Cc1ccc(Nc2nc(C3CC3)cs2)cc1,IkBa stabilization activation,[1],inactive
COc1ccc2[nH]c3nc(SC(C)C)nnc3c2c1,IkBa stabilization activation,[1],inconclusive: 16.9% [signal inhibitor]
Cc1ccc(CNC(=O)CCCn2c(=O)c3ccccc3n(Cc3ccc(Cl)cc3)c2=O)cc1,IkBa stabilization activation,[1],inconclusive: 5.73% [signal inhibitor]
Cc1ccc(CNC(=O)CCC(=O)N2CCSc3ccccc32)cc1,IkBa stabilization activation,[1],inconclusive: 0.128% [signal inhibitor]
CCOc1ccc(-c2noc(CSc3nnc(Cc4ccccc4)n3-c3cccc(C)c3)n2)cc1,IkBa stabilization activation,[1],inconclusive: 2% [signal inhibitor]
Cc1ccc(-c2nc3cc(C(C)C)ccc3o2)cc1NC(=O)c1cc([N+](=O)[O-])ccc1N1CCOCC1,Potency,[1],"inconclusive: 3.16 µM [signal inhibitor, partial curve]"
COc1ccc(N(CC(=O)Nc2nc3ccc(C)cc3s2)S(=O)(=O)c2c(C)nn(C)c2C)cc1,IkBa stabilization activation,[1],inconclusive: 0.0675% [signal inhibitor]
CCc1ccc(NC(=O)N2CCN(C(=O)c3nsc4ccccc34)CC2)cc1,IkBa stabilization activation,[1],inconclusive: -0.126% [signal inhibitor]
O=C(Nc1ccc(SC(F)F)cc1)c1ccc2nccnc2c1,IkBa stabilization activation,[1],inconclusive: -2.32% [signal inhibitor]
COc1cc(Cl)c(C)cc1NC(=O)c1cnc2c(-c3cccc(C)c3)c(C)nn2c1C,IkBa stabilization activation,[1],inconclusive: -0.679% [signal inhibitor]
Cc1ccsc1CN1CCc2nc(N3CCN(c4ccccc4F)CC3)ncc2C1,IkBa stabilization activation,[1],inconclusive: 2.03% [signal inhibitor]
Brc1ccccc1C1=Nn2c(nnc2-c2ccccc2)SC1,IkBa stabilization activation,[1],inactive
CNC(=O)c1ccc(CSc2nc3ccncc3n2Cc2ccc(C)cc2)cc1,IkBa stabilization activation,[1],inconclusive: 1.76% [signal inhibitor]
CC(C)CN(CCNC(=O)c1cc(-c2ccc(Cl)s2)nc2ccccc12)CC(C)C,IkBa stabilization activation,[1],inactive
COc1cccc(CNC(=O)Cn2c(C)c3cnn(-c4ccccc4)c(=O)c3c2C)c1,IkBa stabilization activation,[1],inactive
Cc1ccn2c(Nc3ccccc3C)c(-c3ccccc3)nc2c1,IkBa stabilization activation,[1],inconclusive: 5.68% [signal inhibitor]
CCOC(=O)C1CCN(CC(=O)Nc2c(C(=O)OC)[nH]c3ccccc23)CC1,IkBa stabilization activation,[1],inactive
COc1ccc(CCNc2ncnc3c2oc2ccccc23)cc1OC,IkBa stabilization activation,[1],inconclusive: -5.79% [signal inhibitor]
O=C(Nc1ccc2nc(SCC(=O)N3CCOCC3)sc2c1)c1ccccc1Cl,IkBa stabilization activation,[1],inconclusive: 5.66% [signal inhibitor]
Cc1cccc(OCC(=O)Nc2ccccc2OCc2cc(=O)n3cc(C)ccc3n2)c1,IkBa stabilization activation,[1],inconclusive: 0.543% [signal inhibitor]
Cc1ccc(NCc2cccn2-c2nnc(N3CCC(C(=O)NCc4ccc(F)cc4)CC3)s2)cc1,IkBa stabilization activation,[1],inconclusive: -0.188% [signal inhibitor]
Cc1cccc(NC(=O)c2c(N)sc3c2CCC(C)C3)c1 (stereo unspecified),IkBa stabilization activation,[1],inconclusive: 13.8% [signal inhibitor]
O=C(O)CCc1ccc(-c2ccc(Br)cc2)n1Cc1ccco1,IkBa stabilization activation,[1],inconclusive: 8.01% [signal inhibitor]
Cc1ccccc1Nc1c(-c2ccc(N3CCOCC3)cc2)nc2ccc(Cl)cn12,IkBa stabilization activation,[1],inconclusive: 7.96% [signal inhibitor]
CCOc1ccc(CCNC(=O)CN2CCN(Cc3ccc(F)cc3)C2=O)cc1OCC,IkBa stabilization activation,[1],inconclusive: -0.424% [signal inhibitor]
COc1ccc(C(=O)NCC(c2ccco2)S(=O)(=O)c2cccs2)cc1 (stereo unspecified),IkBa stabilization activation,[1],inconclusive: -0.521% [signal inhibitor]
COc1ccc(N(C)C(=O)C2CCN(S(=O)(=O)c3cc(Br)cc4c3N(C(C)=O)CC4)CC2)cc1,IkBa stabilization activation,[1],inconclusive: 2.26% [signal inhibitor]
COc1ccc(-c2nc3cc(NC(=O)c4cc5ccccc5o4)ccc3o2)cc1,IkBa stabilization activation,[1],inactive
O=C(Nc1ccc2nc(SCC(=O)N3CCOCC3)sc2c1)c1ccc(Cl)cc1,IkBa stabilization activation,[1],inconclusive: -0.94% [signal inhibitor]
CCN(Cc1ccccc1)C(=O)C(CC(C)C)NS(=O)(=O)c1ccc2c(c1)CCN2C(C)=O (stereo unspecified),IkBa stabilization activation,[1],inconclusive: 0.737% [signal inhibitor]
Cc1cccc(N2CCN(C(=O)c3nn(C)c4c3CS(=O)(=O)c3ccccc3-4)CC2C)c1 (stereo unspecified),IkBa stabilization activation,[1],inconclusive: 3.17% [signal inhibitor]
Cc1ccc(-n2c(=O)c3ccccc3n(CC(=O)Nc3cccc(C(F)(F)F)c3)c2=O)cc1,IkBa stabilization activation,[1],inconclusive: 6.01% [signal inhibitor]
O=C(Cn1c(=O)n(-c2ccccc2)c(=O)c2sc3ccccc3c21)NC1CCCC1,IkBa stabilization activation,[1],inconclusive: 9.06% [signal inhibitor]
Cc1ccc(C)c(Nc2nn3c(=O)c4ccc(C(=O)NCc5cccs5)cc4nc3s2)c1,IkBa stabilization activation,[1],inconclusive: 1.97% [signal inhibitor]
O=C(CN1C(=O)CC(c2ccc(F)cc2)=Nc2ccccc21)NCc1ccccc1Cl,IkBa stabilization activation,[1],inconclusive: 9.7% [signal inhibitor]
CSc1ccc(CNC(=O)Cn2ccc3cc(S(=O)(=O)N4CCCC4)ccc32)cc1,IkBa stabilization activation,[1],inconclusive: 0.122% [signal inhibitor]
O=C(Nc1ccc(-c2nc3ccccc3o2)cc1)C1CCCO1 (stereo unspecified),Potency,[1],"inconclusive: 15.8 µM [signal inhibitor, partial curve]"
COc1ccc(-c2nnn(CC(=O)c3c[nH]c4ccccc34)n2)cc1OC,IkBa stabilization activation,[1],inconclusive: 1.12% [signal inhibitor]
CN(C)c1ccc(CNC(=O)c2sc3ncccc3c2-n2cccc2)cc1,IkBa stabilization activation,[1],inconclusive: 1.35% [signal inhibitor]
Cc1ccnc(NC(=O)Nc2ccc(F)cc2)c1,Potency,[1],"inconclusive: 25.1 µM [signal inhibitor, partial curve]"
Cc1ccc2cc(CN(Cc3ccco3)C(=O)c3cccs3)c(=O)[nH]c2c1,Potency,[1],"inconclusive: 25.1 µM [signal inhibitor, partial curve]"
Cc1cc(C)cc(NC(=O)CCN2C(=O)c3ccccc3Sc3ncccc32)c1,IkBa stabilization activation,[1],inactive
COc1cc(Cl)c(NS(=O)(=O)c2ccc(-c3coc(C)n3)cc2)c(OC)c1,IkBa stabilization activation,[1],inconclusive: 2% [signal inhibitor]
CC[C@@H](Nc1ncnc2nc[nH]c12)C(=O)O,IkBa stabilization activation,[1],"inactive: 0.858% [at 11.4 µM, scaled: untreated 0%, proteasome inhibitor 100%]"
